Experimental data: the supplement of paper PMC10126150
Values marked as one replicate rest on one cluster of the flow cell; about a third of the high ones do not repeat.
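Further: ATP exposure 15 min at 22 °C before imaging.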

These sequences were tested on ATP (assay: switch fluorescence ratio, 500 uM ATP over buffer (Cy3 cluster intensity, sum of 5 cycles each) (fold (ratio)); higher = stronger signal-on switching upon ATP binding; sequences stand for … in TCGTCGGCAGCGTCAGATGTGTATAAGAGACAGTTTTTTTTTTTTTTTTTTTTTTTTT…TC). Conditions: aptamer strand: ATP DNA aptamer (quencher-CACCTGGGGGAGTATTGCGGAGGAAGG + anchor), 100 nM annealed; ATP concentration: 500 uM; one replicate.
In short: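 Imaging in selection buffer was followed by imaging after 15 min with 500 uM ATP at 22 °C, for Cy3-labelled switching-strand clusters annealed to 100 nM quencher-labelled ATP aptamer on a modified Illumina MiSeq flow-cell. Five of these buffer/ATP cycles ran, separated by NaOH stripping and re-annealing. The fluorescence ratio per cluster is summed target-cycle over summed buffer-cycle Cy3 intensity, averaged per switch-domain sequence; clusters outside 100-1000 RFU were removed.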
For GATGCGCCT, the switch fluorescence ratio was 1.02. For GATGCGGGAT, the switch fluorescence ratio was 1. Work on GATGCGTAAG yielded a switch fluorescence ratio of 1.02. GATGCGTGTT gave a switch fluorescence ratio of 0.944. In the case of GATGCTAAAA, the switch fluorescence ratio is reported as 1.07. GATGCTCCGT was tested, and the switch fluorescence ratio was 1.09. For GATGCTGAGT, the switch fluorescence ratio was 1.02. GATGGACAAG was tested, and the switch fluorescence ratio was 1.04. In the case of GATGGCCCTA, the switch fluorescence ratio is reported as 1.05. With GATGGCCGCA the switch fluorescence ratio was 1.04. With GATGGCGCC the switch fluorescence ratio was 0.995. For GATGGCTCAA, the switch fluorescence ratio was 0.976. GATGGCTCG gave a switch fluorescence ratio of 1.01. Sequence GATGGCTTCG has a switch fluorescence ratio of 0.972. GATGGGATAA showed a switch fluorescence ratio of 1.01. In the case of GATGGGATCC, the switch fluorescence ratio is reported as 0.998. Work on GATGGGCTTC yielded a switch fluorescence ratio of 0.969. In the case of GATGGGGACT, the switch fluorescence ratio is reported as 0.996. In the case of GATGGTGGA, the switch fluorescence ratio is reported as 1.06. Work on GATGGTTGCA yielded a switch fluorescence ratio of 0.982. GATGTAAGG gave a switch fluorescence ratio of 0.984. Sequence GATGTACTAT has a switch fluorescence ratio of 1.04. GATGTAGCTG was tested, and the switch fluorescence ratio was 1.03. GATGTATCAC showed a switch fluorescence ratio of 1.01. With GATGTATCTT the switch fluorescence ratio was 0.976. GATGTCTCTT showed a switch fluorescence ratio of 0.994. Work on GATGTGCTAG yielded a switch fluorescence ratio of 0.946. Sequence GATGTGGCTG has a switch fluorescence ratio of 1.06. Sequence GATGTGGGAA has a switch fluorescence ratio of 0.955. In the case of GATGTGGT, the switch fluorescence ratio is reported as 0.979. GATGTTCCAA showed a switch fluorescence ratio of 0.97. With GATGTTCGGA the switch fluorescence ratio was 0.943. For GATGTTCTGG, the switch fluorescence ratio was 0.994. Work on GATGTTGGTA yielded a switch fluorescence ratio of 0.986. With GATTAAGGTC the switch fluorescence ratio was 1.05. For GATTAATCAA, the switch fluorescence ratio was 1.02. GATTACCGAG gave a switch fluorescence ratio of 1.1. In the case of GATTAGATTG, the switch fluorescence ratio is reported as 0.988. Sequence GATTAGCCCG has a switch fluorescence ratio of 1. With GATTAGCGGT the switch fluorescence ratio was 1.01. For GATTCAAAAA, the switch fluorescence ratio was 1.02. GATTCATGTA gave a switch fluorescence ratio of 0.979. GATTCCGGGC was tested, and the switch fluorescence ratio was 1.12. With GATTCTACT the switch fluorescence ratio was 1.02. GATTCTAGCG showed a switch fluorescence ratio of 0.989. Sequence GATTCTAGTT has a switch fluorescence ratio of 1.03. Sequence GATTCTCATG has a switch fluorescence ratio of 0.979. In the case of GATTCTCGCA, the switch fluorescence ratio is reported as 1.05. GATTCTGGGA gave a switch fluorescence ratio of 0.963. GATTCTGTCT was tested, and the switch fluorescence ratio was 1.06. GATTCTGTTG showed a switch fluorescence ratio of 0.96. GATTCTTTAA showed a switch fluorescence ratio of 1.01. In the case of GATTGACTCG, the switch fluorescence ratio is reported as 1. With GATTGAGCTC the switch fluorescence ratio was 1.07. GATTGCAAGA gave a switch fluorescence ratio of 1.09. For GATTGCCGCA, the switch fluorescence ratio was 1.1. Sequence GATTGCTAGC has a switch fluorescence ratio of 0.998. In the case of GATTGGATTT, the switch fluorescence ratio is reported as 0.994. Work on GATTGGCCTT yielded a switch fluorescence ratio of 1.02. GATTGGCGG was tested, and the switch fluorescence ratio was 0.961. GATTGTAAGT gave a switch fluorescence ratio of 0.971. For GATTGTATTT, the switch fluorescence ratio was 0.987. GATTGTCGCA was tested, and the switch fluorescence ratio was 0.954. GATTGTTGCA was tested, and the switch fluorescence ratio was 1. Sequence GATTGTTGG has a switch fluorescence ratio of 1.01. Work on GATTTACCCC yielded a switch fluorescence ratio of 1.16. In the case of GATTTAGCGA, the switch fluorescence ratio is reported as 1.02. Sequence GATTTCGATC has a switch fluorescence ratio of 0.93. GATTTCGTCA showed a switch fluorescence ratio of 1.03. For GATTTGAGAG, the switch fluorescence ratio was 0.991. With GATTTGCACT the switch fluorescence ratio was 0.998. GATTTTCTAC showed a switch fluorescence ratio of 0.997. Sequence GATTTTTTTA has a switch fluorescence ratio of 1.01. In the case of GCAAAACCCC, the switch fluorescence ratio is reported as 1.18. GCAAACAAGG showed a switch fluorescence ratio of 1.01. GCAAAGATCA gave a switch fluorescence ratio of 1.02. For GCAAATCGCG, the switch fluorescence ratio was 1. Work on GCAAATTTCG yielded a switch fluorescence ratio of 1.04. GCAACACGGT showed a switch fluorescence ratio of 1.06. Work on GCAACACTAC yielded a switch fluorescence ratio of 2.57. In the case of GCAACCCAGC, the switch fluorescence ratio is reported as 1.05. For GCAACGAGCC, the switch fluorescence ratio was 1.74. Work on GCAACTAGTA yielded a switch fluorescence ratio of 0.969. With GCAACTGCCG the switch fluorescence ratio was 0.968. For GCAACTGTTG, the switch fluorescence ratio was 0.979.
